Laboratory results: paper PMC9317594
These are yes or no findings as the source states them, for the method shown. In cells and extracts the contact can be indirect. Some results given as binding are weak or reduced against the parent protein; the word gives no strength.

Chains of the proteins cited; added tags and fusions are not shown. Lines headed by an entry give the natural chain unless they say otherwise; changes in a name come on top. A line that says so, or that is headed by a name, gives the form on record, which may keep a tag or linker. Residues count along the entry.
UniProt Q8R429: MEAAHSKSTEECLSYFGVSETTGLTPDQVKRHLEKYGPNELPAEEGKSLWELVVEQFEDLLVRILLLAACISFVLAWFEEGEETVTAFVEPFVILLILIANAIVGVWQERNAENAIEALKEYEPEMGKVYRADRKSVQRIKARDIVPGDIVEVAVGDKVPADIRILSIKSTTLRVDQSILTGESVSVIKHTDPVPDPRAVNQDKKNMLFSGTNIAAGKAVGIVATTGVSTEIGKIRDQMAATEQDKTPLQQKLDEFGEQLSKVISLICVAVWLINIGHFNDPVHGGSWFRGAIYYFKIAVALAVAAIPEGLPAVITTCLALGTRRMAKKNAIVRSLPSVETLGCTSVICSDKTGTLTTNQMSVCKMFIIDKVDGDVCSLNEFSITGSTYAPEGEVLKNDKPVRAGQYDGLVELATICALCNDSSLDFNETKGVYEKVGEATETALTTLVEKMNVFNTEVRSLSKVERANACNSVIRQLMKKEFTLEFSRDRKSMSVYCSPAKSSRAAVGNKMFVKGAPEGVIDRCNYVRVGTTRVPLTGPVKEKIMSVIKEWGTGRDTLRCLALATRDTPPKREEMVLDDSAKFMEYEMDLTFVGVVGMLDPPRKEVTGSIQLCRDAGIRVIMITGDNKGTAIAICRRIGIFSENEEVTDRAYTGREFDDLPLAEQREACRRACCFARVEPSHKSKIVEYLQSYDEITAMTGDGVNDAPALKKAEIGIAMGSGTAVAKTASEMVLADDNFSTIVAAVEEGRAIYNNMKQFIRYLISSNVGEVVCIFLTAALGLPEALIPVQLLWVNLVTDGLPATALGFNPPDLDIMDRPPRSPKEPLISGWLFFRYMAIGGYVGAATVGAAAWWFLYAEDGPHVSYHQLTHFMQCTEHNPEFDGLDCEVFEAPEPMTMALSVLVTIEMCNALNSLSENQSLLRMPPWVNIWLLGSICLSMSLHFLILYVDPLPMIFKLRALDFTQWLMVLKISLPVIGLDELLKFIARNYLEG
SERCA2A (mouse) (O55143-2, form named): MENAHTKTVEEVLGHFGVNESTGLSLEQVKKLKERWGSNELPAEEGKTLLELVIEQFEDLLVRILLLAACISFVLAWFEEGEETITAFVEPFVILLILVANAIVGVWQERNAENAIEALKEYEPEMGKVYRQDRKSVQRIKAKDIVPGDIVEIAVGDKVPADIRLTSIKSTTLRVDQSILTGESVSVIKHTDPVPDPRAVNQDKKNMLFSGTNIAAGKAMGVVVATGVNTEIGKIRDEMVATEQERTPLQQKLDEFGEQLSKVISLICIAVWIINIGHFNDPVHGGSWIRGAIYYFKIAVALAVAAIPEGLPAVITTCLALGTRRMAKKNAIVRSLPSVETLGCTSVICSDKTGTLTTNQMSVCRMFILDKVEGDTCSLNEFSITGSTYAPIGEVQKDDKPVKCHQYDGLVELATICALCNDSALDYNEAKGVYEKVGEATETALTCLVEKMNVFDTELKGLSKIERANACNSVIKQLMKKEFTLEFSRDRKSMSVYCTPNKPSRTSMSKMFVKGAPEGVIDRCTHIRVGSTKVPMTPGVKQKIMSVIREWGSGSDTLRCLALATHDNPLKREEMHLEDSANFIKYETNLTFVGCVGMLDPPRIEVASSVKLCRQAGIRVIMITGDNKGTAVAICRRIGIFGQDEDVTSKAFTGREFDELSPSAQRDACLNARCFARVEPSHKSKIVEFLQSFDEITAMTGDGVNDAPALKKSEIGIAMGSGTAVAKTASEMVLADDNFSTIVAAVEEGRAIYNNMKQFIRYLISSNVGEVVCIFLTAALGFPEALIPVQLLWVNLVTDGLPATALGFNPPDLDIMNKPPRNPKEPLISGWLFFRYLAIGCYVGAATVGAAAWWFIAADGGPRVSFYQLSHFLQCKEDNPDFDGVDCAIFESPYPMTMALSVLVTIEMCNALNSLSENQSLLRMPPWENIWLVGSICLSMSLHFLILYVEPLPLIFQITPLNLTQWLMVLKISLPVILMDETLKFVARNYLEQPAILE
SERCA3 (mouse) (Q64518-1, form named): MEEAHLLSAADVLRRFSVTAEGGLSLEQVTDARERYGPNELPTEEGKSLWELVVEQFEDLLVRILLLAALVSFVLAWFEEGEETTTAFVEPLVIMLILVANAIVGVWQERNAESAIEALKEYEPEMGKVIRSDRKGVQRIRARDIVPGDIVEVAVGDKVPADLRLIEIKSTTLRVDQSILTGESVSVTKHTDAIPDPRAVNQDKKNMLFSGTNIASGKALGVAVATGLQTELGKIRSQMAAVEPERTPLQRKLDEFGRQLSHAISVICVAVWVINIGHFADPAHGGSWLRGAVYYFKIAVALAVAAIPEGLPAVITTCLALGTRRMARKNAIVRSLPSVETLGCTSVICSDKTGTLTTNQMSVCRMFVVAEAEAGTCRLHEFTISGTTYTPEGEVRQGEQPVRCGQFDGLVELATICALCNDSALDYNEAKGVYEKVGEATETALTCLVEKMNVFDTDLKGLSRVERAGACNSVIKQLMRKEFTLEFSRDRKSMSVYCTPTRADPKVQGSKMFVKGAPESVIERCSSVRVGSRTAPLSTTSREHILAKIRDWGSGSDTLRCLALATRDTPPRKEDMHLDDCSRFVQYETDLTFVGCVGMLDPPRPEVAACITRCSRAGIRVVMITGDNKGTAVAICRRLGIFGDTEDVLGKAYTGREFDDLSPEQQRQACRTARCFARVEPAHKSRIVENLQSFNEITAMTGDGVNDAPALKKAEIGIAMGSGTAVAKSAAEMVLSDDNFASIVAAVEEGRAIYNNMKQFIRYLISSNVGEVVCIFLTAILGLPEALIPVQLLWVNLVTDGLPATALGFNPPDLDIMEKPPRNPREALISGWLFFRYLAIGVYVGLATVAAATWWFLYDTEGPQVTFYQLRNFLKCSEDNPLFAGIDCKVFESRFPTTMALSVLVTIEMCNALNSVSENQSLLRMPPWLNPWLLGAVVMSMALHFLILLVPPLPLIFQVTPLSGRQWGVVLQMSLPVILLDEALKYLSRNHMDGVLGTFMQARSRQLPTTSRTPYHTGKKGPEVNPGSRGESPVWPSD
UniProt P70414, residues 33-970: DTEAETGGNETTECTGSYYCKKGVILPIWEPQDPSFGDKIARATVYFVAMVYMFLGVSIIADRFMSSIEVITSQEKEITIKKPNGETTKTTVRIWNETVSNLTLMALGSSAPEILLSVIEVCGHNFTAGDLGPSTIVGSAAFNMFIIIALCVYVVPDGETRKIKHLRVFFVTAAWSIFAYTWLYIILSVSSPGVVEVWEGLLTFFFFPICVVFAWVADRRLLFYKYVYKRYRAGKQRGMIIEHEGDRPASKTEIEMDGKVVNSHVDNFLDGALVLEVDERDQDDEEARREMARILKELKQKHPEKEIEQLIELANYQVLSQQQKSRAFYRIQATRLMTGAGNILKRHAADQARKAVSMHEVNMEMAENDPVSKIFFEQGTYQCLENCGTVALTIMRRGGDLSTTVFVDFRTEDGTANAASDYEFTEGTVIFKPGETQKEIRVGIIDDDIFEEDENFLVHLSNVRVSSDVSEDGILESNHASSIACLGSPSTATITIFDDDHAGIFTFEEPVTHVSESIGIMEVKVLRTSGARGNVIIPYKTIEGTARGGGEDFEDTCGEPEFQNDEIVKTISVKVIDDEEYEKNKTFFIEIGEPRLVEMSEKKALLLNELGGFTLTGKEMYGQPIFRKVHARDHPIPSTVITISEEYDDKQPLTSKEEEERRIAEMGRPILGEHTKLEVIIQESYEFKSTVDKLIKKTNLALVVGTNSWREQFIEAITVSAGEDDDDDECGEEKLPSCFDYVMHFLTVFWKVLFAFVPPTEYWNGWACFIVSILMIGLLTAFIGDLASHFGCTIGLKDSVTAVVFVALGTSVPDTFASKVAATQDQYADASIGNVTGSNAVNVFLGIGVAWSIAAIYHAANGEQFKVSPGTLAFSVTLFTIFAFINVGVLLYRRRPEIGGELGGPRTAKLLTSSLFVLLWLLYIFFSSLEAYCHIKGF

Molecular target: T1, mitochondrial Na+-Ca2+ exchanger NCLX (mouse) (mouse) (UniProt Q925Q3)
T1 sequence: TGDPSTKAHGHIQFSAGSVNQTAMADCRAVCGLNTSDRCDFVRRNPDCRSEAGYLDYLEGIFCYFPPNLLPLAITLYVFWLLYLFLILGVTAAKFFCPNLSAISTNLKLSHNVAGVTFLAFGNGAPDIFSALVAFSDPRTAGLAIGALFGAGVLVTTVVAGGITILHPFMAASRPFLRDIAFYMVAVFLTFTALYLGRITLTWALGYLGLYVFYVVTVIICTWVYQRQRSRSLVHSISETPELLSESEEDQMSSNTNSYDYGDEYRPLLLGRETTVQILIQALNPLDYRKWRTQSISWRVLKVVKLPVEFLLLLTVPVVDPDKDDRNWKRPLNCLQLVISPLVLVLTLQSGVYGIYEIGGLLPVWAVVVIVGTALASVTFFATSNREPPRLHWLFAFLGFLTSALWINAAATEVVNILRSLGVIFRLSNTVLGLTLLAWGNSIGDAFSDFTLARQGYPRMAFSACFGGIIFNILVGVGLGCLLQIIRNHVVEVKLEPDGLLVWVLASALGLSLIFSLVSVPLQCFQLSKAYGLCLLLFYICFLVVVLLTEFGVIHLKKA
Assay: split reporter; mKGN- and mKGC-fusion proteins (CoralHue Fluo-chase Kit, MBL) co-transfected into HEK293 cells, eight pairs of tag orientations (i-viii) for each combination; confocal images two days after transfection, fluorescence intensity/area against background cells

Row | binding | Substance
1 | binds | SERCA1 (mouse) (from UniProt Q8R429 1-994)
2 | binds | SERCA2A (mouse) (from UniProt O55143-2 1-998)
3 | binds | SERCA2B (mouse) (from UniProt O55143-1 1-1044)
4 | binds | SERCA3 (mouse) (from UniProt Q64518-1 1-1038)
5 | no binding | plasma membrane Na+-Ca2+ exchanger (NCX) 1 (mouse) (from UniProt P70414 33-970)
